The record followed here is PubChem BioAssay AID256 (DTP/NCI, 2004).

The structures appear in SMILES notation. Inconclusive results and toxic doses are left out. Some entries of the source have several records that differ or are many. This is not the full list of results. An entry can have further records. Values that stand side by side do not match, cause unknown; they may come from other doses, times, organisms or constructs than stated.

This test has as its system CD2F1 mice, L1210 leukemia ip, survival T/C. Briefly: NCI In Vivo Anticancer Drug Screen. Data for tumor model L1210 Leukemia (intraperitoneal) in CD2F1 (CDF1) mice. The settings on record: higher = longer survival. As to the method:
The antitumor activity of compounds was measured in mice bearing transplantable tumors. Survival or tumor size were measured and the results are expressed as the measurement made in the treated group (T) divided by the measurement made in the vehicle treated control group (C). The tumor model used in this assay is L1210 Leukemia (intraperitoneal) in CD2F1 (CDF1) mice

On to `COc1cccc2c1C(=O)c1c(O)c3c(c(O)c1C2=O)C[C@@](O)(C(=O)CO)C[C@@H]3OC1CC(N)C(O)C(C)O1` (stereo not given in full), for which the T/C is, setting by setting: (endpoint: mean survival time, dose: 1.56 mg/kg/injection, schedule: Q01DX009 (ip), vehicle: water) 118 % of control and 155 % of control; (endpoint: mean survival time, dose: 9.0 mg/kg/injection, schedule: Q01DX001 (ip), vehicle: saline) 114 % of control and 155 % of control; (endpoint: median survival time, dose: 16.0 mg/kg/injection, schedule: Q04DX003 (ip), vehicle: water) 98 % of control and 154 % of control. For the compound `O=C(O)Cc1cccc2c(=O)cc(-c3ccccc3)oc12`, for the setting “endpoint: median survival time, dose: 150.0 mg/kg/injection, schedule: Q01DX009 (ip), vehicle: sodium bicarbonate”, the T/C is 124 % of control and 170 % of control. As to `COc1cccc2c1C(=O)c1c(O)c3c(c(O)c1C2=O)CC(O)(C(=O)CO)CC3OC1CC(N)C(O)C(C)O1.[Cl][Pt+2][Cl].[NH2-].[NH2-]` (stereo not given), the T/C (endpoint: median survival time, dose: 16.0 mg/kg/injection, schedule: Q04DX003 (ip), vehicle: DMSO) was 94 % of control and 167 % of control.
